# Results from the supplement of paper PMC11417369.
# This is one part of the list.
# Test system: PfSIP2 AP2 domain 1 (GST-tagged)
# Test: gcPBM binding intensity (ln(normalized median fluorescence intensity)); higher = stronger DNA binding
# Method in brief: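 The binding buffer was 1× PBS containing 1% milk, 0.2 mg/ml BSA, 0.5% salmon testes DNA and 0.03% Triton X-100. In it, GST-tagged P. falciparum DNA-binding domains expressed in E. coli were applied for 1 h to an Agilent 4 × 180k array of primer-extended double-stranded 36-bp intergenic genomic probes plus negative controls. Binding intensity, read with Alexa488 anti-GST antibody and a 488 nm scan, is the highest Masliner-normalised natural-log median intensity across replicate spots of either probe orientation.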
row,Sequence,gcPBM binding intensity (ln)
1,TAATAATAAAATATTTGTACATATAAAATATGGCTG [XGTACX_site7904],6.97
2,AATATAATGCAATATACACACATATATTTCTCTTTT [CACACA_site7276],6.94
3,AATTTTTTTCTCCAAGTGCATTAGAACATTAACGTA [GTGCAC_site9413],8.28
4,ATATATTTATGTATCACACACAAAAAAAAAAAATAA [CACACA_site255],6.94
5,TCCTTATTTTGCAGGAGTACCATTTTTTAAAAATAC [XGTACX_site5968],7.26
6,ACAATTACTTATTTTAATTTTTTTAATCTATTGATT [CACACA_negctrl_site967],6.75
7,AATAACAATTATAAAAGTACAGATTTTTATTTCTAA [XGTACX_site5746],6.82
8,TTTTTTTTGTTATGAACATGCAAATTAAAATATAAT [TGCATGCA_site954],6.96
9,TACTTTTCTTAAAGATGTACGTTTTAAAAATAAAAT [XGTACX_site14],7.39
10,CAACAATTTCGTCATACACACATTCAGAATATATAT [CACACA_site2370],6.99
11,TAAATACATAAAAATTGTACACATTGTTTTCTCTTT [XGTACX_site6435],6.71
12,AAGGAAATAATTAAATGTACAAAAAAAAAAAAAATT [XGTACX_site562],6.71
13,TACAAACAAACACATAGCAATATATGTTATCAAAAA [XGTACX_negctrl_site1],6.85
14,ATATTTTTTTTTCTTTCGCACACGTGAAAGAATTTC [CACACA_site8636],7.29
15,TTTTATGCTCAATTATTAAGAAATACTTTTTCTTCC [XGTACX_negctrl_site208],6.68
16,AAAATAAAAATTAACTGTACATACATTATTCAAATT [XGTACX_site6106],6.67
17,AGAAGTTTATCTTTTAGTACGCATAAAAAAAAAAAA [XGTACX_site2359],6.9
18,TATAAATAATTATATTGTACTCTTTATATTTTTCTT [XGTACX_site5335],6.98
19,TTAAATAGCTGTAATTGTACAAATAAATACATAAAT [XGTACX_site3097],6.96
20,TATAGTAATATTTGAAGTACAAAATTAAAATAAATA [XGTACX_site7634],6.82
21,TTATATAAGGTCTATATATAAATATTAATGATAAGG [TGCATGCA_negctrl_site354],6.81
22,TAAATATATATATGGTGTACCATTTTGGGTTAATAT [XGTACX_site2706],7.02

row,Sequence,gcPBM binding intensity (ln)
1,GGGAGGATATTTCACAGTACCCAGGAAATCTGCGGA [XGTACX_site2555],6.9
2,TTAATATTTTGATGTGTACACATTAAAATAGTTTTA [CACACA_site5712],7.02
3,TATATTATTTTTTATTGTACTTAAAAATATTATTTG [XGTACX_site1443],7.03
4,TTTTTGTTAATAAGTATGCACTATCTCATTTTTGTA,8.48
5,ATATATTTTGGGGACTTTTTAAAAAAGAAGTATTAA [TGCATGCA_negctrl_site337],7.23
6,TAGAAAAAAATAGATGCATGCAATGAATGAATAATA [TGCATGCA_site14],7.48
7,TTTCTATTACGAACGTGTACATACATTATTCTTAAA [XGTACX_site5816],7.25
8,CTATACTATGAAAAGTGTACGAATAGCTAGCTATTT [XGTACX_site5927],6.88
9,TAGTAGTATTCATCCAGTACATATAAATGTATAATA [XGTACX_site7552],6.95
10,GAGCATTACACATATACACACATATAAATAAACATA [CACACA_site7315],7.45
11,GAGAAATTTATACATACACACATATAAATATTATAG [CACACA_site7819],7.1
12,CTTTGCATTACGAACATACACACAGAATAACTGAAA [CACACA_site3024],7.32
13,AATAATATATAAGAAAGTACAAAAAAATAAAATAAA [XGTACX_site3302],6.97
14,TTTTAATGAAATATCAAAAAAATTTATGATTTCAAA [GTGCAC_negctrl_site662],6.58
15,AAAAAGAAAAAACTTACACACATATATACACCCATG [CACACA_site8079],6.91
16,ATATCAAATAGACAAACACACAAAGGAAGAGTGAAA [CACACA_site3921],6.75
17,TTCTTTTTTTTTTTTTTTTTTTTATAGTACAAAAAA [TGCATGCA_negctrl_site450],7.17
18,ATCTATATTATTTCTACACACATATCTATAATATGT [CACACA_site7561],7.07
19,TTTTTTTTTTTGTGTGCATGTGCTAGGAAAGGTAGG [TGCATGCA_site330],7.88
20,TTTCAATGTGACACGTGTCCGTAAAATTACATAATT [XGTACX_site7073],6.96
21,ATTAATAAAAGATAAAGTACAAATCGGAAAATGAAT [XGTACX_site7846],7.09
22,TTGTTCATCTTTTTTTTTTTTTTTTTTTTTTAAATC [CACACA_negctrl_site191],6.72

row,Sequence,gcPBM binding intensity (ln)
1,AAGATTAAACATTGCACACAGAAATATATTTTCTAT [CACACA_site2374],7.12
2,TGAACTCATAGGAAAACACACATATGTGCAATATAT [CACACA_site6231],7.34
3,ACAATGATAGTGTAAAGTACATATATATAAAAAAAT [XGTACX_site5928],7.31
4,TGTTATTATTAAGACACACACACAAAAAAAAAAAAA [CACACA_site1481],7
5,TTTATAATATGTTATACATGCAGGTACCTTTTTGTA [TGCATGCA_site746],6.87
6,ATTTATAATTTTTGAGCACACACAAGCATATATATA [CACACA_site8531],7.16
7,TTTTGAATATATTAAATAAATTAAAAATCTACAAAC [GTGCAC_negctrl_site622],6.96
8,AGATCATAATATTATACACACATTATATATCTGTAA [CACACA_site4925],6.88
9,TAATAAATTCAAAACATAAAAAGGAAAAAAAAAAAA [CACACA_negctrl_site1330],6.8
10,TTATTATATACAAAATGTACACAGAATAATTTGAAT [XGTACX_site2314],7.16
11,ATATATATATATATATGTACATAATATATTATATAT [XGTACX_site924],9.82
12,TTTTTTTTTTTTTTGGTGCAGTTCACATATTATATA [GTGCAC_site9996],9.48
13,TGTGTAAGCACATACAAACACACAACCTTATTTTTA [CACACA_site2187],6.8
14,TATATTAACAAAATGGTGCAATAATTTCTATATTGT [GTGCAC_site9430],9.87
15,TTATTATATTAAAAGAGGACACATTTATTTTTTTTT [XGTACX_site1241],6.88
16,AAAATATTTAATAGAAGTACACATGTATATATACAT [XGTACX_site8942],7.03
17,AAAAAAAAAAAAAAAAAAAAAAAAAAAAATAAAAAA [CACACA_negctrl_site59],8.71
18,ACGATTCAAAGGGAATATAAAATATTATTATCTATA [CACACA_negctrl_site1739],6.72
19,AATAGAATAATCCTTACACACACACCCACACGAATA [CACACA_site8053],7.22
20,AACCAATATGCGTATACACACATAAATATAAATATA [CACACA_site3780],7
21,TTTTTTTTTTTTTGAACACACATTATTAATTTTTAT [CACACA_site308],6.89
22,ATATATTTTTTTTATACATGCAATGCATTTACGTTG [TGCATGCA_site565],7.19

row,Sequence,gcPBM binding intensity (ln)
1,TTTTTTATATATTAGGAATTTATAAAATTAGAAGGT [GTGCAC_negctrl_site617],7.64
2,AACCAGTTGATGTGTACACATATAGTAATAATTTTA [CACACA_site5564],7.05
3,GTATTAATTTTAAGGTGTACGCAAAAAATTTAATTT [XGTACX_site718],7.53
4,TTTTTTTTTTTTTTTTTTTTTTTTTCATATTAATAT [GTGCAC_negctrl_site351],6.93
5,ATTGATACATCCAATACACACTACATATTATGATGT [CACACA_site6965],6.99
6,TTGGCATACAGACACACACACACACCCCCACATATA [CACACA_site590],7.59
7,AATTTATTAAAAAAATGTACTTATTTTTTTGTATAA [XGTACX_site5844],7
8,ACATATTGTAGATATTGTACATATTGTGTATATATT [XGTACX_site7620],7
9,AATATGGAATGAAATAACAATCGGGAGTATATTACC [CACACA_negctrl_site93],7.22
10,TATATATATGTTCTTACACACACGAATATATATATG [CACACA_site3304],7.41
11,CTTTCTCTCAAAATGACATGCAATTTGTTTCTTTTT [TGCATGCA_site169],6.81
12,ATGCGTTTAGCAAAAAGTACATATATATATAATATT [XGTACX_site1928],6.93
13,ATATATATATATATTTGTACTTAATTGATTTTACTT [XGTACX_site2663],9.27
14,ATTATTGATTTATAAACACACACTCGAAGATGTTTA [CACACA_site8294],6.91
15,TTGAAATACTTTATTTGTACATATAGCAAAGTGTAT [XGTACX_site8782],7.08
16,ATTTTTTCTAGACATGCATGTGAAATTTACTTTTTT [TGCATGCA_site305],6.9
17,ATTTTTTTTTAATGCAATATATTTTGAAAATTTTAT [CACACA_negctrl_site753],7
18,TTTTTTTTTTTTTTTACACACTTTATTCAAACAACT [CACACA_site4104],7.01
19,AAAAAAATATATAATAGTACATATATAGGAATATAT [XGTACX_site4591],6.94
20,TGAATACAGATATTCACACAAATAGTTTTGATATAT [CACACA_site5527],6.69
21,TAATATCTTGAGTCATCACACATTGATTAATGAATC [CACACA_site5735],6.73
22,AGTGGAAATTTTATTTGTACATAAATATTTACATAC [XGTACX_site633],7.04
